B1: OTUB1 F133A (enzyme)
chain: not shown
notes: OTUB1, human, 271 residues, full-length ORF of pOPINK-OTUB1 with the mutation F133A; In the FCS experiment 25 nM protein labelled on cysteines with Atto-532 maleimide was mixed as a tracer with 350 uM unlabelled protein
B2: OTUB1 V173K (enzyme)
chain: not shown
notes: OTUB1, human, 271 residues, full-length ORF of pOPINK-OTUB1 with the mutation V173K; In the FCS experiment 25 nM protein labelled on cysteines with Atto-532 maleimide was mixed as a tracer with 350 uM unlabelled protein

Key:
[1] = target: the molecule itself; experiment: fluorescence correlation spectroscopy; 25 nM Atto-532-labelled protein with 350 uM unlabelled protein under aggregating conditions, time points 0, 6, 12, 24 h; size of the second peak from the hydrodynamic radius (Gaussian distribution model); 50 mM sodium phosphate, 150 mM NaCl, pH 7.2; room temperature
[2] = target: T1, Ubc13 (E2 ubiquitin-conjugating enzyme) (UniProt P61088 1-152); experiment: BLI; Ubc13 (25 ug) immobilised on amine-reactive (AR2G) biosensors by EDC/NHS in 10 mM acetate pH 5.0; OTUB1 and mutants 0-400 uM in 50 mM sodium phosphate pH 7.2, 300 mM NaCl; 120 s association, 120 s dissociation; 25 °C; sensor without Ubc13 subtracted; 1:1 model; settings: both partners purified
T1 construct: Ubc13, E2 ubiquitin-conjugating enzyme; the protein-coding frame subcloned into pGEX-6P-1; Coupled by amines (EDC/NHS) to the AR2G biosensor in the BLI assay
T1 sequence (looked up): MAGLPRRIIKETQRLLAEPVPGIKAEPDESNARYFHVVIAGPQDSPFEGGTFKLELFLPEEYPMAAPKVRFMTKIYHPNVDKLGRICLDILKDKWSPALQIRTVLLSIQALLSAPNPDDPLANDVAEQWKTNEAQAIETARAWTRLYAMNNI

| Binder | stoichiometry N [1] [units] | fold reduction of Ubc13 binding against wild type [2] [fold] |
| --- | --- | --- |
| B1 | ~4 | ~21 |
| B2 | ~4 | – |
